# In all, about 33,000 sequences were measured (“E-score (-0.5 to 0.5)”: median about -0.016, highest 2% from about 0.32 on). The list shows a part of the results.
# Target: T1, Stp1 (UniProt B3LFK1)
# T1 sequence: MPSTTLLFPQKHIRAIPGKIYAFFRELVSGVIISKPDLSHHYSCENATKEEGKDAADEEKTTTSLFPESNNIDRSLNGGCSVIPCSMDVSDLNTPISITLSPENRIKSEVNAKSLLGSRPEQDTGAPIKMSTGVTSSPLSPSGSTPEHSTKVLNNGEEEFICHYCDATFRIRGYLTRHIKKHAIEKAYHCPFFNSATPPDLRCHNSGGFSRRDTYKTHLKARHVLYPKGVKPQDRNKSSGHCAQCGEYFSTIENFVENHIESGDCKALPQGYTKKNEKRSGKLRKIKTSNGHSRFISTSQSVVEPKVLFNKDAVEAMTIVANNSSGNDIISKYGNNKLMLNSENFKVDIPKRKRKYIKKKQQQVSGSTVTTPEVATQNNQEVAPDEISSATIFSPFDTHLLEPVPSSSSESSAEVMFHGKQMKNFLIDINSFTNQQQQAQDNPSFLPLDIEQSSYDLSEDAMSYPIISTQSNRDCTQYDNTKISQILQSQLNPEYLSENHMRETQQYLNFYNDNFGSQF
# Assay: PBM E-score (8-mer binding enrichment) (E-score (-0.5 to 0.5)); higher = stronger / more preferred TF binding; most listed sequences are background and not binding sites
# Conditions: protein concentration: 200 nM; construct: GST-full length
# Method in brief: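 Universal all-10-mer Agilent arrays, fresh or stripped once, were converted to double-stranded form by primer extension. GST-tagged yeast transcription factors from PURExpress in vitro transcription/translation, full-length or DNA-binding domain only, were applied at about 100-200 nM and detected with fluorescent anti-GST. After masliner normalisation, the Universal PBM Analysis Suite scored each ungapped eight-base word together with its reverse complement by E-score.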
row,Sequence,PBM E-score
1,CATAGACA,0.0911
2,AGCGGCCC,-0.00454
3,AAATGCGT,0.00095
4,TCATGTAA,0.0364
5,ACTACAGT,0.0222
6,CAAGCCTG,-0.17
7,GCGTTCAC,0.0183
8,ATGTTGCC,0.269
9,CATCACGC,-0.0336
10,ATGCTTAA,-0.0124
11,AAGCTACA,0.00573
12,AAGATTAA,0.084
13,GAAACCTA,-0.22
14,GACCCTTA,-0.196
15,CATTCCTC,-0.115
16,AGCCCAGC,-0.159
17,ACAGGGAA,-0.0492
18,AATTGTAA,0.113
19,TGTTACAA,0.166
20,GTACTCGA,-0.0712
21,GAGATCTA,-0.202
22,CATATGAA,0.118
23,GGAGCTAC,-0.0121
24,AGAGTCTG,-0.255
25,ACGCTCGC,-0.0463

row,Sequence,PBM E-score
1,GTCCACGA,-0.00812
2,AGCTAATC,0.108
3,TAGCCAGA,0.0735
4,CATAACAG,0.222
5,CTTAAAGA,0.0788
6,AGGAACGG,0.228
7,ATTAACAC,0.117
8,CTTTGGTA,-0.0625
9,CCCAAGCG,-0.0427
10,AACTTGTA,0.146
11,GCCCACCA,-0.144
12,GGAGTGTA,-0.113
13,ATTTACCC,0.0198
14,CCCAATAC,-0.00448
15,ACCATAAA,0.166
16,AAGAACCC,-0.185
17,GAGTGTCA,0.0462
18,AGAGTGCA,-0.121
19,TAGACGAA,0.0973
20,ACAGTGGA,-0.0694
21,CGAGCGTA,-0.0631
22,CATAGCTC,-0.194
23,CGATGATA,0.0137
24,CAGATTAC,0.0382
25,ACGATGTA,-0.029

row,Sequence,PBM E-score
1,CAGGGTCC,-0.201
2,GAGAATCC,0.0868
3,TAAGACTA,0.00596
4,GAATTTGA,-0.026
5,GAAGGGAA,-0.245
6,AACTCGAG,-0.0118
7,CTTAATAC,0.0358
8,ACCTCTCC,-0.245
9,CGTCTCAG,-0.0111
10,AAAGATCG,-0.0323
11,TAGCACAA,0.032
12,TGGCGAAA,0.088
13,CTTCAATA,-0.0196
14,GCGTCCAA,-0.00493
15,GTGATAAA,0.164
16,TACGCTCA,-0.0311
17,CAGGGAAG,-0.199
18,CGGAGAAC,-0.184
19,CGATGGCA,0.0536
20,CGCAATAG,0.135
21,ACCGACGG,-0.0181
22,CAATACCC,-0.152
23,TCCGAAGA,0.0567
24,CTGTGTTC,-0.062
25,AACGCATA,0.0564

row,Sequence,PBM E-score
1,CCCCCGCA,-0.169
2,AGTCACAG,-0.187
3,TTACGCAA,0.15
4,CAGAAAGG,0.0864
5,AACAGTGA,-0.115
6,GTACAGTA,0.013
7,AGGTCATG,-0.226
8,GTATCTGA,-0.0545
9,GATCTGTA,-0.138
10,CGGGTGGC,-0.124
11,CCGTGACA,0.0322
12,AGGCTTTG,-0.0165
13,CGTTGTCA,0.0498
14,AAACGTCT,0.0625
15,AAGTGGAT,-0.149
16,CTCCCGGC,-0.164
17,ATGCTCGG,-0.113
18,TTAGTCAA,-0.132
19,AGGTCAGA,-0.306
20,CGATCTGC,-0.0533
21,GCGAGGTA,0.0342
22,GTCGATGA,-0.243
23,GACTGGGC,-0.217
24,ATACGAGA,-0.0267
25,ACGTGGGG,-0.174

row,Sequence,PBM E-score
1,GAATACTC,-0.0372
2,CAACTGTC,-0.00959
3,ATACTTCC,-0.029
4,CCGAGGCC,-0.22
5,GCGAGTAC,0.0367
6,ATACTTGC,0.11
7,CCTCTAGA,-0.0919
8,AGCTTAAT,0.0412
9,CTCTGCTC,-0.178
10,CCTTGTCC,0.037
11,TACGTGGA,0.0688
12,AGTCAGCA,0.199
13,ACAGGGGA,-0.24
14,CGTTGAAG,-0.0287
15,CTAAGCCA,-0.308
16,ATAATAAC,0.217
17,ACTCCACG,0.0239
18,CTGAGTAA,-0.105
19,ATACCCTG,-0.096
20,AGATCAAA,0.0271
21,AGAATAAG,-0.0264
22,CCTGTAGA,-0.0803
23,GCCATCTA,0.00107
24,ACTGCTGA,-0.16
25,AACGCGCA,-0.0475

row,Sequence,PBM E-score
1,ACAAACCA,-0.00617
2,AAATGAAG,0.0898
3,CACCAGGG,-0.219
4,ACCAAGCT,-0.0176
5,CATGTTGG,-0.0174
6,GGCAATCA,0.109
7,ACGAGTAT,-0.097
8,AGTTGGAC,-0.0952
9,CTCCTTGA,-0.229
10,CCGTTAAC,-0.00154
11,GGGCCGCA,0.285
12,AGTCCCAG,-0.258
13,AAAAAATT,0.117
14,CCTGGTGC,0.0925
15,CCAGACGC,-0.15
16,CAACTAAC,0.172
17,ACGCGTGG,0.1
18,CCTATGGA,-0.119
19,GCGGAGGA,-0.175
20,AAACGGAA,0.272
21,ATTCGCCC,-0.0713
22,CAACCGGC,0.134
23,ATTAGCTA,-0.0565
24,ATAGCGCC,0.357
25,CAAGCAGA,0.177

row,Sequence,PBM E-score
1,ATGTGTAC,-0.00236
2,AGCACTAC,-0.177
3,ATGAGCTG,-0.175
4,AAGTGCCT,0.202
5,ACCCTGCG,-0.156
6,CCAGATAA,0.0105
7,GGCATTTA,0.229
8,AAGGTGGG,-0.288
9,AACCTAAC,-0.0483
10,TGCCCAAA,-0.0909
11,GAGTTTAC,-0.0322
12,ACTCCAGT,-0.116
13,CTACTGTC,-0.157
14,ACCAAACG,-0.0326
15,ACTAACAT,0.0936
16,GCCCCTTA,-0.112
17,ACTCTTCG,-0.18
18,GCCCTAAA,-0.0669
19,GCTAACTA,0.169
20,AGTACGAG,-0.0489
21,CGACTTAG,0.0156
22,AACGGCGT,0.448

# Source: the supplement of paper PMC3334620
